From the supplement of paper PMC4967469
The IC50 comes from the fitted curve, where viability falls to half of the control; fits outside the tested doses are given as limits. For AUC the same curve is integrated over the 256-fold range of doses and scaled to a fraction: 1 means no effect, lower means more sensitive. For part of these data: Any top dose called inferred was derived from the fitted curves, not read from the paper.

How the values were obtained:
Assay in all cases: Viability of human cancer cell lines after 72 h of drug (GDSC screen)
Erlotinib = compound: C#Cc1cccc(Nc2ncnc3cc(OCCOC)c(OCCOC)cc23)c1 [Erlotinib]; settings: top dose 2 µM
Description: (§1)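 Human cancer cell lines in 384-well plates, medium with 10% serum, drug for 72 h over a 256-fold dose range (nine 2-fold or five 4-fold steps up to the top dose). Adherent lines were fixed and stained with the nucleic acid dye Syto60, suspension lines read with resazurin; signal relative to control wells, capped at 0 and 100%. One two-parameter sigmoid per drug and line, fitted in a mixed model over all curves with the slope shared within a line.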

WHI-P97 = compound: COc1cc2ncnc(Nc3cc(Br)c(O)c(Br)c3)c2cc1OC [WHI-P97]; settings: top dose 10.24 µM; top dose inferred
Description: as §1

NU-7441 = compound: O=c1cc(N2CCOCC2)oc2c(-c3cccc4c3sc3ccccc34)cccc12 [NU-7441]; settings: top dose 2 µM; top dose inferred
Description: as §1

XL-184 = compound: COc1cc2nccc(Oc3ccc(NC(=O)C4(C(=O)Nc5ccc(F)cc5)CC4)cc3)c2cc1OC [XL-184]; settings: top dose 5.12 µM; top dose inferred
Description: as §1

S-Trityl-L-cysteine = compound: N[C@@H](CSC(c1ccccc1)(c1ccccc1)c1ccccc1)C(=O)O [S-Trityl-L-cysteine]; settings: top dose 5.12 µM; top dose inferred
Description: as §1

QL-XI-92 = compound: C=CC(=O)Nc1cc(NC(=O)c2ccc(C)c(NC(=O)c3ccno3)c2)cc(C(F)(F)F)c1 [QL-XI-92]; settings: top dose 10.24 µM; top dose inferred
Description: as §1

Phenformin = compound: N=C(N)NC(=N)NCCc1ccccc1 [Phenformin]; settings: top dose 4000 µM; top dose inferred
Description: as §1

EHT 1864 = compound: O=c1cc(CN2CCOCC2)occ1OCCCCCSc1ccnc2cc(C(F)(F)F)ccc12 [EHT 1864]; settings: top dose 10 µM; top dose inferred
Description: as §1

AG-014699 = compound: CNCc1ccc(-c2[nH]c3cc(F)cc4c3c2CCNC4=O)cc1 [AG-014699]; settings: top dose 5 µM; top dose inferred
Description: as §1

Vinorelbine = compound: CCC1=C[C@@H]2CN(C1)Cc1c([nH]c3ccccc13)[C@@](C(=O)OC)(c1cc3c(cc1OC)N(C)[C@H]1[C@@](O)(C(=O)OC)[C@H](OC(C)=O)[C@]4(CC)C=CCN5CC[C@]31[C@@H]54)C2 [Vinorelbine]; settings: top dose 0.064 µM; top dose inferred
Description: as §1

Gefitinib = compound: COc1cc2ncnc(Nc3ccc(F)c(Cl)c3)c2cc1OCCCN1CCOCC1 [Gefitinib]; settings: top dose 0.5 µM
Description: as §1

| Cell Line | AUC (Erlotinib) | IC50 (Erlotinib) [µM] | AUC (WHI-P97) | IC50 (WHI-P97) [µM] | AUC (NU-7441) | IC50 (NU-7441) [µM] | AUC (XL-184) | IC50 (XL-184) [µM] | AUC (S-Trityl-L-cysteine) | IC50 (S-Trityl-L-cysteine) [µM] | AUC (QL-XI-92) | IC50 (QL-XI-92) [µM] | AUC (Phenformin) | IC50 (Phenformin) [µM] | AUC (EHT 1864) | IC50 (EHT 1864) [µM] | AUC (AG-014699) | IC50 (AG-014699) [µM] | AUC (Vinorelbine) | IC50 (Vinorelbine) [µM] | AUC (Gefitinib) | IC50 (Gefitinib) [µM] |
| --- | --- | --- | --- | --- | --- | --- | --- | --- | --- | --- | --- | --- | --- | --- | --- | --- | --- | --- | --- | --- | --- | --- |
| OCI-AML2 (acute myeloid leukaemia, suspension) | 0.991 | > 2 | 0.97 | > 10.2 | 0.995 | > 2 | 0.989 | > 5.12 | 0.649 | 0.74 | 0.915 | 8.2 | 0.43 | 169 | 0.952 | > 10 | 0.995 | > 5 | 0.644 | 0.00896 |  |  |
| RC-K8 (B-cell lymphoma, suspension) | 0.993 | > 2 | 0.993 | > 10.2 | 0.989 | > 2 | 0.989 | > 5.12 |  |  | 0.993 | > 10.2 | 0.703 | 852 | 0.977 | > 10 | 0.993 | > 5 | 0.976 | > 0.064 | 0.989 | > 0.5 |
| RH-1 (rhabdomyosarcoma, adherent) | 0.991 | > 2 | 0.96 | > 10.2 |  |  | 0.849 | 2.92 | 0.904 | 4.86 | 0.981 | > 10.2 | 0.953 | > 4000 | 0.913 | > 10 | 0.895 | 4.32 | 0.64 | 0.0091 | 0.945 | > 0.5 |
| SCC-3 (B-cell lymphoma, suspension) | 0.995 | > 2 | 0.997 | > 10.2 |  |  | 0.96 | > 5.12 | 0.681 | 0.875 | 0.817 | 3.83 | 0.914 | 2880 |  |  |  |  | 0.754 | 0.0166 |  |  |
| SIG-M5 (acute myeloid leukaemia, suspension) | 0.976 | > 2 | 0.911 | 8.01 |  |  | 0.841 | 2.35 | 0.675 | 0.858 | 0.828 | 4.3 | 0.512 | 267 |  |  |  |  | 0.402 | 0.00231 |  |  |
| SK-MEL-2 (melanoma, adherent) | 0.987 | > 2 | 0.985 | > 10.2 | 0.977 | > 2 | 0.987 | > 5.12 |  |  | 0.985 | > 10.2 | 0.894 | > 4000 | 0.987 | > 10 | 0.986 | > 5 | 0.615 | 0.00842 | 0.985 | > 0.5 |
| SK-N-DZ (neuroblastoma, adherent) | 0.98 | > 2 | 0.985 | > 10.2 |  |  | 0.921 | > 5.12 | 0.822 | 2.95 | 0.98 | > 10.2 | 0.864 | 3420 | 0.925 | > 10 | 0.971 | > 5 | 0.959 | > 0.064 | 0.887 | > 0.5 |
| SU-DHL-8 (B-cell lymphoma, suspension) | 0.949 | > 2 | 0.988 | > 10.2 | 0.988 | > 2 | 0.883 | 4.84 | 0.659 | 0.854 | 0.691 | 2.11 | 0.123 | 17.7 |  |  | 0.988 | > 5 | 0.663 | 0.011 |  |  |
| TC-71 (Ewing sarcoma, adherent) | 0.992 | > 2 | 0.887 | 8.11 | 0.981 | > 2 | 0.915 | > 5.12 | 0.863 | 3.26 | 0.985 | > 10.2 | 0.748 | 1100 | 0.93 | > 10 | 0.948 | > 5 | 0.815 | 0.0278 |  |  |
| TE-10 (oesophagus, adherent) | 0.922 | > 2 | 0.934 | > 10.2 | 0.964 | > 2 | 0.945 | > 5.12 | 0.645 | 0.796 | 0.976 | > 10.2 | 0.884 | > 4000 | 0.987 | > 10 | 0.934 | > 5 | 0.516 | 0.00441 |  |  |
| TE-15 (oesophagus, suspension) | 0.88 | > 2 | 0.647 | 1.73 | 0.967 | > 2 | 0.879 | > 5.12 | 0.646 | 0.86 | 0.911 | > 10.2 | 0.494 | 241 | 0.974 | > 10 | 0.976 | > 5 | 0.506 | 0.00415 |  |  |
| VAL (B-cell lymphoma, suspension) | 0.973 | > 2 | 0.904 | > 10.2 | 0.967 | > 2 | 0.895 | > 5.12 |  |  | 0.716 | 2.62 | 0.583 | 421 | 0.981 | > 10 | 0.978 | > 5 | 0.874 | 0.0629 | 0.98 | > 0.5 |
| no-10 (glioma, adherent) | 0.976 | > 2 | 0.972 | > 10.2 |  |  | 0.978 | > 5.12 | 0.756 | 2.11 | 0.934 | > 10.2 | 0.792 | 2280 | 0.947 | > 10 | 0.972 | > 5 | 0.795 | 0.0377 | 0.98 | > 0.5 |
